Data as given in article PMC4374139.
No constants are given. Whether binding was seen depends on the method and setting. Binding seen in cells or lysates may run through a third protein. Some entries that bind do so weakly or less than the wild type.

By UniProt entry, the sequences of proteins in these tests, tags left out. Where a name states a change or a piece, a line headed by the entry shows the natural chain unless it says otherwise.
UniProt Q92547: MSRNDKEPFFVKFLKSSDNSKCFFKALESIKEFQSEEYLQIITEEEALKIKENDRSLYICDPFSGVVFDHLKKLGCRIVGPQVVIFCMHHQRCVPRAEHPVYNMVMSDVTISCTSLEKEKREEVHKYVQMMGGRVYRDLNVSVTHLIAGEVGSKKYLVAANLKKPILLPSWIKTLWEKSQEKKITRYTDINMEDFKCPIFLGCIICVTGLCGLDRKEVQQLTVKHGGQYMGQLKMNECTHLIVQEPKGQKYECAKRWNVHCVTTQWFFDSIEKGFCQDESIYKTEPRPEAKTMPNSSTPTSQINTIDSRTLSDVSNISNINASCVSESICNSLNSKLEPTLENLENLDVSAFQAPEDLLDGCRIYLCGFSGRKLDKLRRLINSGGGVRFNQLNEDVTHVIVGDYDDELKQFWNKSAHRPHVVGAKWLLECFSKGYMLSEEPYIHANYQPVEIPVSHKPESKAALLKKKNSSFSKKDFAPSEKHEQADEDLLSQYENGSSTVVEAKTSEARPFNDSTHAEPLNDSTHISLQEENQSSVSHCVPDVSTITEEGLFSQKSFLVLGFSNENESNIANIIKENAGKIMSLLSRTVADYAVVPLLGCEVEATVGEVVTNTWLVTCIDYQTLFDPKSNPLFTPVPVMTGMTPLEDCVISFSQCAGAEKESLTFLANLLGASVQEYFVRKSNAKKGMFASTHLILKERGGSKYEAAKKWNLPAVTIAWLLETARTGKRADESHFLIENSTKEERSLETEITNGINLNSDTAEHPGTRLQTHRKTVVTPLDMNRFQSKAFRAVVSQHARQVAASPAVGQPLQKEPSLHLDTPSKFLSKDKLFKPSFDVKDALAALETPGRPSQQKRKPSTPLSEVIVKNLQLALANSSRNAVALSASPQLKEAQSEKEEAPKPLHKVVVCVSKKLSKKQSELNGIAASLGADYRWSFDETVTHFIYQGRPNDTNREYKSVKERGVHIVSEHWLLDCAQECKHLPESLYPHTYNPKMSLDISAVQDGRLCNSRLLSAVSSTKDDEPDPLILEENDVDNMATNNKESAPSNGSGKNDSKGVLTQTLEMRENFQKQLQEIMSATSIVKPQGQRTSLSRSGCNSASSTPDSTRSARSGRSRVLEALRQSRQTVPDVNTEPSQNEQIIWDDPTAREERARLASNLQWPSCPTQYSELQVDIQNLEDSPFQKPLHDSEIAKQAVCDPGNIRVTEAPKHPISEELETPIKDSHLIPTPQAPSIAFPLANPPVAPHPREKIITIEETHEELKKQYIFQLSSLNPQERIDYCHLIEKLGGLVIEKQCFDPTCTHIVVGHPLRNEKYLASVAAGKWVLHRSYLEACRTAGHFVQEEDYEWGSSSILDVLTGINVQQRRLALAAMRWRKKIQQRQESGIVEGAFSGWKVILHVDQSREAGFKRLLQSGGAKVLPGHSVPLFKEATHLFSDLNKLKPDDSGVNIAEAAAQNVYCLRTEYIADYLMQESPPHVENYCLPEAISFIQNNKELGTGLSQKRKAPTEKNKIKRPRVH
UniProt P54132: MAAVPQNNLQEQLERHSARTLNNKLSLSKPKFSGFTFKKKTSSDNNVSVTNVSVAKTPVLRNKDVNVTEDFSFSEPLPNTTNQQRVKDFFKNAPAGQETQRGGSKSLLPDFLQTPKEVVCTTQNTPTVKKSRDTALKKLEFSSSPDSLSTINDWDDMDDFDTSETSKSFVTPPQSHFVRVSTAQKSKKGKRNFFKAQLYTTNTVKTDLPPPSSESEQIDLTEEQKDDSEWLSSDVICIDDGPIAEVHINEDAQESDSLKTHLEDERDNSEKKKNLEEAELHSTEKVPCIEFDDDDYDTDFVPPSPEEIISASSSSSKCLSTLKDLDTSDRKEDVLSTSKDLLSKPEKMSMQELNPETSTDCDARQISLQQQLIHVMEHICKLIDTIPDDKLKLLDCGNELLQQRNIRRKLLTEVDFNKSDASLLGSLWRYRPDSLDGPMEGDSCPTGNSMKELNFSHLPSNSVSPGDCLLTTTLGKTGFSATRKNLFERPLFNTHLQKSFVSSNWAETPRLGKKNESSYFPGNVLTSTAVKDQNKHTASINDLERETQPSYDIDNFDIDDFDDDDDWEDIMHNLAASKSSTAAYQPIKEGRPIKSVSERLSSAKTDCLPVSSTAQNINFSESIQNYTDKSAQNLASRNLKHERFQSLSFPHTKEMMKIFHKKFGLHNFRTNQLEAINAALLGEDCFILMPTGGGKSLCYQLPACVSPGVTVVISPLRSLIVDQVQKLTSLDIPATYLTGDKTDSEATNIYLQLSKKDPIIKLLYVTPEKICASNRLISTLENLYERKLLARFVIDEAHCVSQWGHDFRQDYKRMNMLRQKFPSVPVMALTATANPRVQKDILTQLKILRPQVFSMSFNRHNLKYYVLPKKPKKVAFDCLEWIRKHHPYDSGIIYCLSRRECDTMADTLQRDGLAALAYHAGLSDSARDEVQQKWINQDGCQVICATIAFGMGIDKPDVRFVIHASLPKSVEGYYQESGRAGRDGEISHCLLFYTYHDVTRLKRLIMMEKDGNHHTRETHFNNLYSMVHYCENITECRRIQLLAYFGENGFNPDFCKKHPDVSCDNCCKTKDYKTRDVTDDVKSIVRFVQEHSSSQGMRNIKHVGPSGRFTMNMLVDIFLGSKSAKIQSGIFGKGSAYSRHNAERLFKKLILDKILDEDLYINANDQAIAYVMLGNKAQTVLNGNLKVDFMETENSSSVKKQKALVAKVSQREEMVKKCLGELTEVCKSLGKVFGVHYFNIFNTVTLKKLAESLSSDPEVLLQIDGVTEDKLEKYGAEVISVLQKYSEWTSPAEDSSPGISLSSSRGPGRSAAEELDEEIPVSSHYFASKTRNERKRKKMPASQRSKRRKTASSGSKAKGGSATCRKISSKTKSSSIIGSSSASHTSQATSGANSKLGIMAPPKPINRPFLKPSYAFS
UniProt O60934: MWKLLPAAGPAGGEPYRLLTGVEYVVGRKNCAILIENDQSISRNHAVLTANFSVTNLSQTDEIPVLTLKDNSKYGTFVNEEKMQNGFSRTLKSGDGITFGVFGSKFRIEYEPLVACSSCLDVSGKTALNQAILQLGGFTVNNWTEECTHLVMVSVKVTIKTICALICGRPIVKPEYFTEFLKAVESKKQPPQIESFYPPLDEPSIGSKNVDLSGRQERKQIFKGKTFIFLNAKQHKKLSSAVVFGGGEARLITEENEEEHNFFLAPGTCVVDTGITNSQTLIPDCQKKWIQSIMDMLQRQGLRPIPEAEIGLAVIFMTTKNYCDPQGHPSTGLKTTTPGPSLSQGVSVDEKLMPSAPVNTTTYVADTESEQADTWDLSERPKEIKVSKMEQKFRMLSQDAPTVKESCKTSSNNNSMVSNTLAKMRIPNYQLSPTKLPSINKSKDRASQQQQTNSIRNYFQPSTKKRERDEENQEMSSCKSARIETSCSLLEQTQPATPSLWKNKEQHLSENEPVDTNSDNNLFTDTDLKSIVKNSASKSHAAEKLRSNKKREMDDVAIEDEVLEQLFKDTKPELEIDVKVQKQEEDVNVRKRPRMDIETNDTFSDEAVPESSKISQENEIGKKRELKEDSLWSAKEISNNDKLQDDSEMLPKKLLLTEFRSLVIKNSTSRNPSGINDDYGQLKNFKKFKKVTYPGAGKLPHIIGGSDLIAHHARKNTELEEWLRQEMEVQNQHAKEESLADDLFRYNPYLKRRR

How the values were obtained:
[1] = molecular target: GFP-tagged TopBP1 K154A (BRCT1 mutant) (UniProt Q92547); experiment: co-IP; pull-down of GFP-tagged TopBP1 or BLM constructs (GFP-Trap agarose) from lysates of transiently transfected 293FT cells, 24 hr after transfection; also cells synchronized in S phase (Figure S3A); Benzonase-treated lysate, 200 mM NaCl, 2 mM EDTA, 4°C; western blot
[2] = molecular target: GFP-tagged TopBP1 wild-type (UniProt Q92547); experiment: as above
[3] = molecular target: TopBP1 W711R (BRCT5 mutant) (UniProt Q92547); experiment: as above
[4] = molecular target: GFP-tagged TopBP1 K704A (BRCT5 mutant) (UniProt Q92547); experiment: as above
[5] = molecular target: GFP-tagged TopBP1 K1317A (BRCT7 mutant) (UniProt Q92547); experiment: as above
[6] = molecular target: topoisomerase-IIβ-binding protein 1 (TopBP1), endogenous (human (endogenous in 293FT, U2OS, HeLa)) (UniProt Q92547); experiment: co-IP; immunoprecipitation of endogenous TopBP1 or BLM with antibodies and protein G Sepharose from 293FT cell extracts; Benzonase-treated lysate, 200 mM NaCl, 2 mM EDTA, 4°C; western blot

With “Bloom syndrome helicase BLM, endogenous (from UniProt P54132 1-1417)” the binding [1] was “binds”, the binding [2] was “binds” and the binding [3] was “no binding”. The binding [4] was “no binding”, the binding [5] was “binds” and the binding [6] was “binds”.

For NBS1 (from UniProt O60934 1-754), the binding [1] was “no binding”, the binding [2] was “binds” and the binding [3] was “binds”. The binding [4] was “binds”.
